Measurements: PMC12313907
These are yes or no findings as the source states them, for the method shown. For some of these results: In cells and extracts the contact can be indirect. Some binding calls cover weakened binding; strength is not graded here. Blank lines part the entries; values can stand above or below the substance they belong to.

Chains of the proteins cited; added tags and fusions are not shown. Lines headed by an entry give the natural chain unless they say otherwise; changes in a name come on top. Residues count along the entry.
UniProt Q99873: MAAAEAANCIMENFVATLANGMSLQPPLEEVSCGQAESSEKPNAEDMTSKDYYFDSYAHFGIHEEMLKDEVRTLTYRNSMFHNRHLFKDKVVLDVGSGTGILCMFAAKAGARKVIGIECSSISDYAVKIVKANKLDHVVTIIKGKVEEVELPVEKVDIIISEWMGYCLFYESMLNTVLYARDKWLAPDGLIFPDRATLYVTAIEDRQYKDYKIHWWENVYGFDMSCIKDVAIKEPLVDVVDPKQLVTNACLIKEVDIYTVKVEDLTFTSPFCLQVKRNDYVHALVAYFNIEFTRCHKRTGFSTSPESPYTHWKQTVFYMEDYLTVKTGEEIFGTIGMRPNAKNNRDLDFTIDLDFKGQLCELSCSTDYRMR
UniProt P61081: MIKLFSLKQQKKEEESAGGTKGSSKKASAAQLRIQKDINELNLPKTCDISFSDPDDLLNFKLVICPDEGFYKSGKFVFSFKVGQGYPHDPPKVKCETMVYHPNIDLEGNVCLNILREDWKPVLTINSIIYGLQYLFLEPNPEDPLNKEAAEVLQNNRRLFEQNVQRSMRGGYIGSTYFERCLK
UniProt P46934: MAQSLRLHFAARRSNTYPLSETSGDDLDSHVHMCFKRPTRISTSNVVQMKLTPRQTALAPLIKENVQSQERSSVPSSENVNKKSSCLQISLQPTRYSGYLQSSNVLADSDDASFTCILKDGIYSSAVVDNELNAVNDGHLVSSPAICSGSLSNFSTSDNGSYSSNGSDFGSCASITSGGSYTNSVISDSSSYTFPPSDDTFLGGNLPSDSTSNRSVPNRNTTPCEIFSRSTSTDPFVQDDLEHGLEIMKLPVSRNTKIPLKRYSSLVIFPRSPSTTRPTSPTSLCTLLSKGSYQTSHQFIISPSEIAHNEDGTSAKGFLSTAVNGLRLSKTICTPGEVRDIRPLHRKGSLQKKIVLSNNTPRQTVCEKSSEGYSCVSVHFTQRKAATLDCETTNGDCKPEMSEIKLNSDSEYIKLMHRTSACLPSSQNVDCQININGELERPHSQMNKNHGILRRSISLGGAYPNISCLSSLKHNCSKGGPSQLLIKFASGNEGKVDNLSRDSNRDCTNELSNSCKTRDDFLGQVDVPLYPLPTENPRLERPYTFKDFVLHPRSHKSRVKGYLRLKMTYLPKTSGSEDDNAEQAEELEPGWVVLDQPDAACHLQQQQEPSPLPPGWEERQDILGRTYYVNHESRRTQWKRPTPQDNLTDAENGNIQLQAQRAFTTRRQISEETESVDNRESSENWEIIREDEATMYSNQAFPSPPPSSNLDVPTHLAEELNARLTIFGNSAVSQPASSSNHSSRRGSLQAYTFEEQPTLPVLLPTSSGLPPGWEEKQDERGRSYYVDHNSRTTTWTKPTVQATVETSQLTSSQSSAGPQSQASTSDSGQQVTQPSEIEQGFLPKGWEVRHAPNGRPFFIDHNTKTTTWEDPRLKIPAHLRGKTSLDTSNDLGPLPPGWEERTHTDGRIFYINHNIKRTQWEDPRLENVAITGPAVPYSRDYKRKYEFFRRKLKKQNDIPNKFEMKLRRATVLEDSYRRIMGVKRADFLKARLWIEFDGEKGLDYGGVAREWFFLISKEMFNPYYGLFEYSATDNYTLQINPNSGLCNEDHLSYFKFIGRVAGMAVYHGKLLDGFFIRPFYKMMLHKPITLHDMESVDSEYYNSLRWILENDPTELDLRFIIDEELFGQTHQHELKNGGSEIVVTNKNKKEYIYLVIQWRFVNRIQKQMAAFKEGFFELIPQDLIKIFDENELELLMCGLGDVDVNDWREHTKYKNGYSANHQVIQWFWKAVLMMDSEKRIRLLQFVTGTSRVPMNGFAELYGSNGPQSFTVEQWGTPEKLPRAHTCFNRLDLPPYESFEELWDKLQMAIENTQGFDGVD
UniProt Q15843, residues 1-76: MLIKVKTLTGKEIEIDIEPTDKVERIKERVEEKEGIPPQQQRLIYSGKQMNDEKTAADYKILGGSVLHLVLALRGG
UniProt P37231: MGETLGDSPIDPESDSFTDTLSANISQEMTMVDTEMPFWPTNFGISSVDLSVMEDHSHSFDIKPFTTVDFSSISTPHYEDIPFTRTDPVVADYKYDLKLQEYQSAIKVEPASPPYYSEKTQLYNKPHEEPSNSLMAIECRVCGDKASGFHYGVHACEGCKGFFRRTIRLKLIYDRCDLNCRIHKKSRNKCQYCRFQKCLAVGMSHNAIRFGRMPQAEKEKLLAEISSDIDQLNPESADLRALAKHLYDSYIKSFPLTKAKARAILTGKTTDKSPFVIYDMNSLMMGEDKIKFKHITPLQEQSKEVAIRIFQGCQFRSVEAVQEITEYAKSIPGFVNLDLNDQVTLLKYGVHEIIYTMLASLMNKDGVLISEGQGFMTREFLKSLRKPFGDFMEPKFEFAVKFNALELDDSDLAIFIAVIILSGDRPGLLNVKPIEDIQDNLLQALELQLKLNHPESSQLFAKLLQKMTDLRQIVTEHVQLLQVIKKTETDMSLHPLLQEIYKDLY

Experiments:
[1] = molecular target: Recombinant human GST-PRMT1 (human) (UniProt Q99873); assay: pull-down; GST-PRMT1 or GST mixed with His-UBE2m overnight at 4 °C, then GST beads 3 h at 4 °C; immunoblot with GST and His antibodies; both purified
[2] = molecular target: Ubiquitin-conjugating enzyme E2M (UBE2m), endogenous in HK-2 cells (human (endogenous in HK-2)) (UniProt P61081); assay: co-IP; endogenous proteins, lysates of COM-treated HK-2 cells; IP antibody overnight at 4 °C, protein A/G magnetic beads; IgG as negative control; both directions
[3] = molecular target: NEDD4, endogenous in HK-2 cells (human (endogenous in HK-2)) (UniProt P46934); assay: condition: only UBE2m KO HK-2 cells with the vector alone; proximity ligation; Duolink PLA on UBE2m KO HK-2 cells with only the vector introduced
[4] = molecular target: NEDD4, endogenous in HK-2 cells (human (endogenous in HK-2)) (UniProt P46934); assay: proximity ligation; Duolink PLA on UBE2m KO HK-2 cells with UBE2m WT reintroduced
[5] = molecular target: NEDD4, endogenous in HK-2 cells (human (endogenous in HK-2)) (UniProt P46934); assay: proximity ligation; Duolink In Situ Red kit on fixed HK-2 cells, control and COM-treated
[6] = molecular target: Protein arginine methyltransferase 1 (PRMT1), endogenous in HK-2 cells (human (endogenous in HK-2)) (UniProt Q99873); assay: as above
[7] = molecular target: Protein arginine methyltransferase 1 (PRMT1), endogenous in HK-2 cells (human (endogenous in HK-2)) (UniProt Q99873); assay: co-IP; endogenous proteins, lysates of COM-treated HK-2 cells; IP antibody overnight at 4 °C, protein A/G magnetic beads; IgG as negative control; both directions

binding [1]: binds
Substance: Recombinant human His-UBE2m (from UniProt P61081 1-183) (enzyme)

binding [2]: binds
Substance: Protein arginine methyltransferase 1 (PRMT1), endogenous in HK-2 cells (from UniProt Q99873 1-371) (enzyme)

binding [3]: no binding
binding [4]: binds
Substance: NEDD8, endogenous in HK-2 cells (from UniProt Q15843 1-76)

binding [5]: binds
Substance: Peroxisome proliferator activated receptor γ (PPARγ), endogenous in HK-2 cells (from UniProt P37231 1-505)

binding [6]: binds
binding [7]: binds
Substance: Ubiquitin-conjugating enzyme E2M (UBE2m), endogenous in HK-2 cells (from UniProt P61081 1-183)
